In the supplement of paper PMC3334620:
In all, about 33,000 sequences were measured (“E-score (-0.5 to 0.5)”: median about -0.053, highest 2% from about 0.37 on). The list shows a part of the results.

Molecular target: Hap1 (UniProt P0CE41)
Experiment: PBM E-score (8-mer binding enrichment) (E-score (-0.5 to 0.5)); higher = stronger / more preferred TF binding; most listed sequences are background and not binding sites
Settings: protein concentration: 200 nM; construct: GST-DNA-binding domain
Description: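 Universal 'all 10-mer' protein binding microarrays (Agilent AMADID 015681) probed with GST-tagged S. cerevisiae TFs (full-length or DBD) made by in vitro transcription/translation (PURExpress), about 100-200 nM. Bound TF was detected with fluorescent anti-GST. Each ungapped 8-mer (which stands for itself and its reverse complement) is scored by the PBM enrichment score (E-score), a modified Wilcoxon-Mann-Whitney statistic from -0.5 to +0.5, computed with the Universal PBM Analysis Suite. Scale: above 0.35 generally sequence-specific binding.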

Sequence of UniProt P0CE41 (P0CE41 whole entry): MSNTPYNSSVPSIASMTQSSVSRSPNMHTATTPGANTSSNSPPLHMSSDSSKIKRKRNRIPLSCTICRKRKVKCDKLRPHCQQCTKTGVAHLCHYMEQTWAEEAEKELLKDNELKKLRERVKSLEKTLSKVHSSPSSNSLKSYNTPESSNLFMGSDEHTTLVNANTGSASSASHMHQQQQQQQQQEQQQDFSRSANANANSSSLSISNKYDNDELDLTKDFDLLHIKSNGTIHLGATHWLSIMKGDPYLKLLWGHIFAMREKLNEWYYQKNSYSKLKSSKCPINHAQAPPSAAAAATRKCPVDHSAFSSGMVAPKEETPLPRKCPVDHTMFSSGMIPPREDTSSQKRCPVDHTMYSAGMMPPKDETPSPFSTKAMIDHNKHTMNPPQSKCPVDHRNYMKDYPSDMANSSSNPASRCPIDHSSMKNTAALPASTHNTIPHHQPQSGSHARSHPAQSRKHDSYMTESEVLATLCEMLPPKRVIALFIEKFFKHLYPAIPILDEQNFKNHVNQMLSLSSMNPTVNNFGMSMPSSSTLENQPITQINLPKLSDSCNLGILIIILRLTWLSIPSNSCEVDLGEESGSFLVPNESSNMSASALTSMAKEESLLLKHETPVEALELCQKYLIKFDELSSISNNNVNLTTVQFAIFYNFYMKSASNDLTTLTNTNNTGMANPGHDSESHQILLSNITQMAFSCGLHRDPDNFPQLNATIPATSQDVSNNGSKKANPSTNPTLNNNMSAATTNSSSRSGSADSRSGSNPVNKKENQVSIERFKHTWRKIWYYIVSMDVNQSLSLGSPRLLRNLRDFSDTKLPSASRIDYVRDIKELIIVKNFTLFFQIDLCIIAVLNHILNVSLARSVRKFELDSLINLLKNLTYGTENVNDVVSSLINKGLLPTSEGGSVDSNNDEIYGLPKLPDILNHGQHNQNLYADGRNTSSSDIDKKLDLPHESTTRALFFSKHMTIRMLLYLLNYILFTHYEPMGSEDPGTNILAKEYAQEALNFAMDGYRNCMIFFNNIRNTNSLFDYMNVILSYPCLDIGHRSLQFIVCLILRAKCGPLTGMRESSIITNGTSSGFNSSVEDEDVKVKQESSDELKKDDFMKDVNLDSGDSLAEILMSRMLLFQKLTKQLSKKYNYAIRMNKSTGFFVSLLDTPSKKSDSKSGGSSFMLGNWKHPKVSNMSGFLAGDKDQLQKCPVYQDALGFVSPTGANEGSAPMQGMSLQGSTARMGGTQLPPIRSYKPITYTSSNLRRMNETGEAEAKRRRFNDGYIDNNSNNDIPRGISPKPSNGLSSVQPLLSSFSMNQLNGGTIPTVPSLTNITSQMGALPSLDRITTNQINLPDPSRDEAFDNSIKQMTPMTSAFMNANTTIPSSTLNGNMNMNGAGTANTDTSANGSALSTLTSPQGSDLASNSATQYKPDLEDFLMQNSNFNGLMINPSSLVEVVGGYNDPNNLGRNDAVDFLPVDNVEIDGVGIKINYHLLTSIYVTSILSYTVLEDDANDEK

Sequence | PBM E-score
ATGGCGTG | -0.206
GAAAGCGC | 0.116
GAACCTTC | -0.0929
GTAAAAGA | -0.215
ACCAAAGT | -0.104
CGAAGCAG | 0.0324
AACCAGTG | -0.205
TTCCTCAA | -0.183
ACAGCTGG | -0.175
GAGTACTC | 0.0539
GCAGTGTA | -0.155
AACACTCA | -0.0112
AGGAGCCA | -0.325
TGGTGGAA | -0.191
ACAGGCCG | 0.192
ACTGACGA | -0.0969
AGATACTC | -0.0989
AGTCTCCG | 0.362
GCTGCCAC | -0.0119
AAGGACAT | -0.0738
GAAAAATA | 0.0403
ACCAGCTC | -0.0516
CGTCAACG | 0.0515
ACATCGCG | -0.0355
TAAGTTAA | 0.0727

Sequence | PBM E-score
GATTGTGC | -0.0311
TCGGTAAA | 0.249
CCTGCCGC | -0.124
CCGCCGCG | 0.278
ATCCTTTG | -0.00548
ACCTTTTA | -0.198
GATCGGCC | 0.331
GTATGCAC | -0.112
CACTTTTC | 0.0512
ATGCCCGG | 0.354
AAAATCCT | 0.0522
CCTGGATA | -0.108
GTGTTATA | -0.0285
CCAAAAAG | -0.165
ACCACGGG | -0.0102
AATTTTAC | -0.0695
ACATTAAG | -0.209
CCCGCCGA | 0.323
ACCGGTTA | 0.304
GTTGGGTA | -0.208
GGAGGCTA | 0.0314
CCCAAGGC | -0.0818
ATAATCGC | 0.0499
CAGATGCA | -0.247
AACCACGA | 0.0191

Sequence | PBM E-score
CATAACCC | 0.0105
CTTGCAAA | 0.0682
GAATTGTA | -0.205
AGAAACAA | 0.0172
CATGGCGG | 0.106
ATACAGAA | -0.0178
CCGTGGCG | 0.221
CCTTAAAG | -0.146
AGCTGGTG | 0.0394
CATTTAGG | -0.112
GCTTCGGA | 0.327
GATTATGA | 0.0407
CAAGTTCA | 0.0306
CGCGGCTC | 0.109
CCGTTCGA | 0.0421
CTGCAGAA | -0.114
AGGGGTAT | -0.0522
CTATAATA | 0.0434
CAAGCATA | -0.0814
GTCGCGGA | 0.16
AACATAGC | 0.015
CACATCCA | -0.0146
GCATAGGC | -0.313
ACAACACT | -0.0976
CCAAATAC | -0.0681

Sequence | PBM E-score
ACGCCGTA | 0.0761
GGATGTTA | 0.179
CTCGGAAA | 0.346
CTTGCAGA | -0.0562
CCCTCTTA | -0.13
AAGGCTTG | -0.0599
CAACGTAC | -0.303
CGATAGCG | 0.26
CCAGCGGA | 0.176
ACTAAATA | -0.0994
ACGCATGC | 0.00073
TCCTTGAA | -0.0959
AGGGTTCG | -0.0597
TATTGACA | -0.082
ACGGATAT | 0.43
CCAGGTCC | 0.174
CTCTCACC | -0.101
ACAGCCCT | -0.107
CGACATCG | 0.229
GTTATCTA | 0.0137
AACACCGT | 0.245
GACCAGCA | -0.0864
AATTAGCT | -0.00426
GCCCCCCC | -0.145
CTGCGGAA | 0.112

Sequence | PBM E-score
AGCGCGAA | 0.0606
GATATTCA | 0.0076
CGGCTCGA | 0.245
ATGGATGG | -0.0356
ATTACCGG | 0.434
TCTAGTAA | 0.0175
CATCCTGG | -0.102
ACAGCCGT | 0.0994
CGTAGGAA | -0.182
ATTAGCAG | 0.0304
AGTTTCGA | -0.0388
CCATTGGC | -0.0939
AGACCTGG | -0.121
TCATTAGA | -0.126
ATTACTAC | -0.224
TCGCGCCA | 0.135
ACCGAACC | 0.251
ATGCTAGA | -0.24
GGCGTATA | -0.0502
AAGTTATA | -0.0591
ACGGAGAC | 0.285
GCTAGCGA | -0.0832
ACAAAGCG | -0.0571
GATTAACA | -0.101
ATAAGAAA | 0.0132

Sequence | PBM E-score
ACTAACCG | 0.12
ACCCGAGT | 0.229
AACTTTCC | 0.1
TACCTACA | -0.246
CTAACTCC | 0.403
TTATCGAA | 0.255
ATCGTAGA | -0.213
AACGAAAA | 0.00098
AACGAGAA | -0.15
CTTACGTA | -0.203
TAGTCGGA | 0.309
ATGCTTTC | -0.157
GGTATTTA | 0.169
AAAAGAAG | -0.104
ACGGACCG | 0.328
GAACTTGA | -0.0295
AGGTGGTG | -0.0593
GATGATCC | 0.174
CTATAGAA | -0.135
CTAACCGC | -0.0116
CCGGAGAG | 0.354
ACTCGGGC | 0.216
ATTTCCCC | 0.181
GATGCACA | -0.209
GTTGTCGA | -0.169

Sequence | PBM E-score
ATGATGTA | -0.12
AGCACATA | 0.0123
CTAACGTC | 0.00466
CACGAACG | -0.00661
CGCTGGAG | 0.00312
ATCTACCA | -0.136
ACCGCCTG | -0.105
GAGTGACA | -0.112
GAGGACTA | -0.108
ATGCCTAA | -0.21
GCGGGAAC | 0.212
GATGGTGA | -0.0555
CCCACCAC | -0.0164
AACCTCCA | -0.163
GACTGCGA | -0.126
GAACGAGC | -0.018
AGGGTCGC | 0.0733
AATAAGCA | -0.204
CCGGGCTC | 0.243
ACGCCAAG | -0.289
AACTGGAC | -0.0332
ATACGCAA | -0.142
